Reference: PubChem BioAssay AID686978 (National Center for Advancing Translational Sciences (NCATS), 2013)
Values joined by “and” are separate entries in the source; they are usually repeats but may differ in a detail not shown here. Equal values may be shown once. In all, about 420,000 compounds went through this assay and about 64,000 (15%) were called active. The shares of active, inactive and inconclusive entries below differ from those in the screen. Calls follow the shape of the dose curve; as a rule, active = well fitted inhibition curve with a large enough effect; inconclusive = small, poorly fitted or top-dose-only effect; inactive = flat fitted curve, though single readings scatter. Where the call is inconclusive, the potency comes from a doubtful curve fit.

Experiment: qHTS for Inhibitors of human tyrosyl-DNA phosphodiesterase 1 (TDP1): qHTS in cells in absence of CPT; also: nearly all actives have a fitted effect of over 55% in size
Conditions: DT40 Tdp1-/- hTDP1 cells, no CPT, ATP luminescence, 48 h; activity change, negative = growth inhibition: at 46.2 µM (top of the series) unless noted
In short: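 Chicken DT40 Tdp1-/- cells complemented with human TDP1, screened without camptothecin (DMSO vehicle only), 400 cells/well. Compounds pin-transferred, cells incubated at 37 °C for at least 48 hr. Growth read as ATP-dependent luminescence (CellTiter-Glo, 30 min at RT).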
% is scaled to controls: 0 for no effect and ±100 for the full control effect; potency is read from the fitted curve at half-maximal effect; tags tell the direction and shape of the fitted curve.

| Compound | Potency | activity change, negative = growth inhibition |
| --- | --- | --- |
| COc1cccc(Cn2c(Oc3cccc(C)c3)nc3c2c(=O)n(C)c(=O)n3C)c1 | active: 23.1 µM |  |
| CC(C)(C)n1cnc2cc(NS(=O)(=O)c3ccc(Br)cc3)ccc21 | inconclusive: 16.4 µM [inhibitor, partial curve, poor fit] |  |
| COc1ccccc1C(=O)Nc1nnc(S(=O)(=O)N2CCN(c3ccc(F)cc3)CC2)s1 | inactive and inconclusive: 25.9 µM [inhibitor, single point] |  |
| CC(=O)Nc1cccc(-c2ccnc3c2CC(C)(C(=O)NCC2CC2)O3)c1 (centres undefined) | active: 2.91 µM |  |
| COc1ccc(CCNC(=O)COC(=O)CSc2ccc(C(N)=O)cc2[N+](=O)[O-])cc1OC |  | inactive: 3.01% |
| Cc1nc(SCC(=O)NCc2ccc(F)cc2)c2c(=O)n(C)c(=O)n(C)c2n1 | inconclusive: 16.4 µM [inhibitor, single point] |  |
| CC1CN(CCS(=O)(=O)c2cc(Cl)ccc2Cl)CC(C)O1 (centres undefined) | inconclusive: 23.1 µM [inhibitor, single point] |  |
| O=C(NNC1CC(=O)N(c2ccccc2)C1=O)c1ccc(COc2ccccc2Cl)o1 (centres undefined) |  | inactive: -14.7% |
| CCCCN1C(=O)C(=O)N(CC(=O)N2CCN(c3ccccc3)CC2)C1=O | inconclusive: 2.06 µM [inhibitor, partial curve, poor fit] |  |
| CCCOC(=O)c1ccc(Oc2coc3c(CN(CC)CC)c(O)ccc3c2=O)cc1 |  | inconclusive: -37.4% [inhibitor] |
| COc1cccc(C2Nc3ccc4ccccc4c3C3=C2C(=O)CCC3)c1O (centres undefined) | inconclusive: 29.1 µM [inhibitor, single point] |  |
| COC(=O)c1ccc(C2NCCc3cc(OC)c(OC)cc32)cc1 (centres undefined) | inconclusive: 20.6 µM [inhibitor, single point] |  |
| CC1CCN(S(=O)(=O)c2nnc(NC(=O)c3ccccc3Br)s2)CC1 |  | inactive: -12.4% |
| CCCCCCCNc1ccc(/C=C/c2ccnc3ccccc23)cc1 | active: 10 µM |  |
| COc1cc(OC)c(NS(=O)(=O)c2cc3c(cc2C)N(C(C)=O)CCO3)cc1Cl | inconclusive: 11.6 µM [inhibitor, single point] |  |
| CCc1cc(C(=O)OC)c(NC(=O)CC2Sc3ccc(C(F)(F)F)cc3NC2=O)s1 (centres undefined) | inconclusive: 20.6 µM [inhibitor, single point] |  |
| COc1cccc(NC(=O)CN(C)C(=O)c2cc(Cl)nc3ccccc23)c1 | inconclusive: 29.1 µM [inhibitor, single point] |  |
| CCOC(=O)CSc1nnc(CNC(=O)c2cccs2)n1-c1cc(OC)ccc1OC |  | inactive: 0.211% |
| O=C1CN(C(=O)CCCc2c[nH]c3ccccc23)c2ccccc2N1 | inconclusive: 35.5 µM [inhibitor, single point] |  |
| CN(C)C(=S)Nc1ccc(Br)c(Cl)c1 |  | inactive: -19.9% |
| CCc1nnc(SCc2nc(-c3cccc(Cl)c3)oc2C)c2cc3sc(C)cc3n12 | inconclusive: 20.6 µM [inhibitor, partial curve, poor fit] |  |
| COc1c(-c2ccc(O)cc2)oc2cc(O)cc(O)c2c1=O | inconclusive: 29.1 µM [inhibitor, single point] |  |

| Compound | Potency | activity change, negative = growth inhibition |
| --- | --- | --- |
| Cc1ccc(Sc2ncnc3onc(C)c23)c(C)c1 | inconclusive: 29.1 µM [inhibitor, single point] |  |
| CN(C)CCN1C(=O)c2ccccc2C1=O |  | inactive: -11.9% |
| Cc1ccnc(NCc2cc(Cl)ccc2O)c1 | inconclusive: 29.1 µM [inhibitor, single point] |  |
| Cc1cc(NC(=O)/C=C/c2cccc(Cl)c2)n(-c2nc3ccccc3[nH]2)n1 | active: 11.6 µM |  |
| OC1(c2ccc3c(c2)CN(Cc2nccs2)CCO3)CCN(c2ccccc2F)CC1 | inconclusive: 18.4 µM [inhibitor, single point] |  |
| COC(=O)c1ccccc1OCc1cc(=O)oc2ccc(C)cc12 |  | inactive: -10.1% |
| NC(=O)COC(=O)c1ccccc1OCc1ccc(Cl)cc1 |  | inactive: -11.5% |
| COc1ccc(C(=O)Nc2ccccc2C(=O)NCC2CCCO2)cc1 (centres undefined) | inconclusive: 25.9 µM [inhibitor, single point] |  |
| CCOC(=O)c1c(-c2cc(OC)c(OC)c(OC)c2)csc1N | inconclusive: 23.1 µM [inhibitor, single point] |  |
| Cn1c(=O)c(C(=O)NCc2ccc(Cl)cc2)c(O)c2ccccc21 | inconclusive: 25.9 µM [inhibitor, single point] |  |
| COC(=O)C[C@H]1CC[C@H](NS(=O)(=O)c2cn(C)cn2)[C@@H](CO)O1 |  | inactive: 16% |
| COCc1cc(=O)[nH]c(/N=C(\N)Nc2cccc(Cl)c2)n1 | inconclusive: 20.6 µM [inhibitor, single point] |  |
| Cc1ccc(Nc2nc(NCCO)nc3c2cnn3C)cc1Cl | active: 14.6 µM |  |
| COc1ccc2[nH]c(=O)c(CN(C(=O)NC3CCCCC3)C3CCCCC3)cc2c1 | active: 20.6 µM |  |
| CCC(C(=O)Nc1ccc(C(C)C)cc1)n1nc(C)n2c(cc3cc(C)ccc32)c1=O (centres undefined) | inconclusive: 29.1 µM [inhibitor, single point] |  |
| CCOC(=O)C1CCN(CCC(=O)Nc2cccc(Cl)c2C)CC1 | inconclusive: 29.1 µM [inhibitor, single point] |  |
| CN(C)S(=O)(=O)c1cccc(COC(=O)c2cc([N+](=O)[O-])ccc2N2CCOCC2)c1 | inconclusive: 29.1 µM [inhibitor, single point] |  |
| O=C(NCCS(=O)(=O)N1CCN(Cc2ccccc2)CC1)c1ccc(F)cc1 | inconclusive: 23.1 µM [inhibitor, partial curve] |  |
| COc1cc(/C=N/Nc2nc3ccccc3[nH]2)cc(OC)c1O | active: 3.66 µM |  |
| O=C(Nc1ccc(-c2nc3ccccc3o2)cc1)c1cc(-n2cnnc2)ccc1Cl | inconclusive: 25.9 µM [inhibitor, single point] |  |
| COc1ccc(NC(=S)NC2CCN(Cc3ccccc3)CC2)cc1OC | inconclusive: 23.1 µM [inhibitor, single point] |  |
| Cc1ccc(C)c(N2CCN(C(=O)CCc3nc(-c4ccccc4Br)no3)CC2)c1 | inconclusive: 29.1 µM [inhibitor, single point] |  |
